# According to the supplement of paper PMC8728848:
# The list shows a part of the results.
# B1: rCnSL-proA (Clitocybe nebularis) (protein)
# chain: AAFFSLVVLLALLPFGIHASALPSTELTPRVNPNLPGPNDVFVGFRGTNNIVGAIYEKDGIKDTPLNNGADAEMGPGSYITDGLFTARIFASGSAGNNPGTTATVCKIYASGVQWRGAPKGYIPVAYFGNGPTAEQRRQTYLRTLGLPGTAIRFGNLNTNPGQGPTAPRQMVVPPGPLRSLLKASCFPAADTRLPQTLHYFEKRVDWNIITAADSQTWGH
# Legend:
# Assay in all cases: glycan array binding signal (z-score within array); higher = stronger binding
# Conditions in all cases: glycan notation: IUPAC condensed, linker removed
# [1] = biological target: GlcNAc(b1-4)GlcNAc(b1-4)GlcNAc(b1-4)GlcNAc(b1-4)GlcNAc(b1-4)GlcNAc
# Method in brief: (§1)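 Columns mapping to the same glycan were averaged after glycan names were converted to IUPAC-condensed notation. The data come from 3228 arrays in the Consortium for Functional Glycomics database, limited to those with an available protein sequence. Binding is reported as a within-array Z-score averaged across arrays of one protein sequence and across linkers.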
# [2] = biological target: GlcNAc(b1-4)[GlcNAc(b1-6)]GalNAc
# Method in brief: as §1
# [3] = biological target: GlcNAc(b1-6)Gal(b1-4)GlcNAc
# Method in brief: as §1
# GlcNAc(b1-6)GalNAc = biological target: GlcNAc(b1-6)GalNAc
# Method in brief: as §1
# [4] = biological target: GlcNAc6S(b1-3)Gal(b1-4)GlcNAc
# Method in brief: as §1
# Kdn(a2-3)Gal(b1-3)GalNAc = biological target: Kdn(a2-3)Gal(b1-3)GalNAc
# Method in brief: as §1
# Kdn(a2-3)Gal(b1-3)GlcNAc = biological target: Kdn(a2-3)Gal(b1-3)GlcNAc
# Method in brief: as §1
# Kdn(a2-3)Gal(b1-4)Glc = biological target: Kdn(a2-3)Gal(b1-4)Glc
# Method in brief: as §1
# Kdn(a2-3)Gal(b1-4)GlcNAc = biological target: Kdn(a2-3)Gal(b1-4)GlcNAc
# Method in brief: as §1
# [5] = biological target: Kdn(a2-3)Gal(b1-4)[Fuc(a1-3)]GlcNAc
# Method in brief: as §1
# Kdn(a2-6)Gal(b1-4)GlcNAc = biological target: Kdn(a2-6)Gal(b1-4)GlcNAc
# Method in brief: as §1
# [6] = biological target: Man(a1-2)Man(a1-2)Man(a1-3)Man
# Method in brief: as §1
# [7] = biological target: Man(a1-2)Man(a1-2)Man(a1-6)[Man(a1-3)]Man
# Method in brief: as §1
# Man(a1-2)Man(a1-3)Man = biological target: Man(a1-2)Man(a1-3)Man
# Method in brief: as §1
# [8] = biological target: Man(a1-2)Man(a1-3)[Man(a1-2)Man(a1-6)]Man
# Method in brief: as §1
# [9] = biological target: Man(a1-2)Man(a1-3)[Man(a1-2)Man(a1-6)]Man(a1-6)[Man(a1-2)Man(a1-2)Man(a1-3)]Man
# Method in brief: as §1
# [10] = biological target: Man(a1-2)Man(a1-3)[Man(a1-2)Man(a1-6)]Man(a1-6)[Man(a1-2)Man(a1-2)Man(a1-3)]Man(b1-4)GlcNAc(b1-4)GlcNAc
# Method in brief: as §1
# [11] = biological target: Man(a1-2)Man(a1-3)[Man(a1-6)]Man(a1-6)[Man(a1-2)Man(a1-3)]Man(b1-4)GlcNAc(b1-4)GlcNAc
# Method in brief: as §1
# [12] = biological target: Man(a1-2)Man(a1-6)[Man(a1-3)]Man(a1-6)[Man(a1-2)Man(a1-2)Man(a1-3)]Man
# Method in brief: as §1
# [13] = biological target: Man(a1-2)Man(a1-6)[Man(a1-3)]Man(a1-6)[Man(a1-2)Man(a1-2)Man(a1-3)]Man(b1-4)GlcNAc(b1-4)GlcNAc
# Method in brief: as §1
# Man(a1-3)[Man(a1-6)]Man = biological target: Man(a1-3)[Man(a1-6)]Man
# Method in brief: as §1
# [14] = biological target: Man(a1-3)[Man(a1-6)]Man(a1-6)[Man(a1-2)Man(a1-3)]Man(b1-4)GlcNAc(b1-4)GlcNAc
# Method in brief: as §1
# [15] = biological target: Man(a1-3)[Man(a1-6)]Man(a1-6)[Man(a1-3)]Man
# Method in brief: as §1
# [16] = biological target: Man(a1-3)[Man(a1-6)]Man(a1-6)[Man(a1-3)]Man(b1-4)GlcNAc(b1-4)GlcNAc
# Method in brief: as §1
# [17] = biological target: Man(a1-3)[Man(a1-6)]Man(b1-4)GlcNAc(b1-4)GlcNAc
# Method in brief: as §1
# [18] = biological target: Man(a1-3)[Man(a1-6)]Man(b1-4)GlcNAc(b1-4)[Fuc(a1-6)]GlcNAc
# Method in brief: as §1
# Man(a1-6)Man = biological target: Man(a1-6)Man
# Method in brief: as §1
# Man(b1-4)GlcNAc = biological target: Man(b1-4)GlcNAc
# Method in brief: as §1
# MurNAc(b1-4)GlcNAc = biological target: MurNAc(b1-4)GlcNAc
# Method in brief: as §1
# Neu5Ac(a2-3)Gal = biological target: Neu5Ac(a2-3)Gal
# Method in brief: as §1
# [19] = biological target: Neu5Ac(a2-3)Gal(b1-3)GalNAc
# Method in brief: as §1
# [20] = biological target: Neu5Ac(a2-3)Gal(b1-3)GalNAc(b1-3)Gal(a1-4)Gal(b1-4)Glc
# Method in brief: as §1
# [21] = biological target: Neu5Ac(a2-3)Gal(b1-3)GalNAc(b1-4)[Neu5Ac(a2-3)]Gal(b1-4)Glc
# Method in brief: as §1
# [22] = biological target: Neu5Ac(a2-3)Gal(b1-3)GalNAc(b1-4)[Neu5Ac(a2-8)Neu5Ac(a2-3)]Gal(b1-4)Glc
# Method in brief: as §1
# [23] = biological target: Neu5Ac(a2-3)Gal(b1-3)GalNAc6S
# Method in brief: as §1
# [24] = biological target: Neu5Ac(a2-3)Gal(b1-3)GlcNAc
# Method in brief: as §1
# [25] = biological target: Neu5Ac(a2-3)Gal(b1-3)GlcNAc(b1-2)Man
# Method in brief: as §1
# [26] = biological target: Neu5Ac(a2-3)Gal(b1-3)GlcNAc(b1-2)Man(a1-3)[GlcNAc(b1-4)][Neu5Ac(a2-3)Gal(b1-3)GlcNAc(b1-2)Man(a1-6)]Man(b1-4)GlcNAc(b1-4)GlcNAc
# Method in brief: as §1
# [27] = biological target: Neu5Ac(a2-3)Gal(b1-3)GlcNAc(b1-2)Man(a1-3)[Neu5Ac(a2-3)Gal(b1-3)GlcNAc(b1-2)Man(a1-6)]Man(b1-4)GlcNAc(b1-4)GlcNAc
# Method in brief: as §1
# [28] = biological target: Neu5Ac(a2-3)Gal(b1-3)GlcNAc(b1-2)[Neu5Ac(a2-3)Gal(b1-3)GlcNAc(b1-4)]Man(a1-6)[Neu5Ac(a2-3)Gal(b1-3)GlcNAc(b1-2)Man(a1-3)]Man(b1-4)GlcNAc(b1-4)GlcNAc
# Method in brief: as §1
# [29] = biological target: Neu5Ac(a2-3)Gal(b1-3)GlcNAc(b1-3)Gal(b1-3)GlcNAc
# Method in brief: as §1
# [30] = biological target: Neu5Ac(a2-3)Gal(b1-3)GlcNAc(b1-3)Gal(b1-4)GlcNAc
# Method in brief: as §1
# [31] = biological target: Neu5Ac(a2-3)Gal(b1-3)GlcNAc(b1-3)GalNAc
# Method in brief: as §1
# [32] = biological target: Neu5Ac(a2-3)Gal(b1-3)GlcNAc(b1-4)Gal(b1-4)Glc
# Method in brief: as §1
# [33] = biological target: Neu5Ac(a2-3)Gal(b1-3)GlcNAc(b1-6)GalNAc
# Method in brief: as §1
binder,measurement,setting,value
B1,glycan array binding signal (z-score),[1],-0.305
same,glycan array binding signal (z-score),[2],-0.002
same,glycan array binding signal (z-score),[3],-0.312
same,glycan array binding signal (z-score),GlcNAc(b1-6)GalNAc,-0.195
same,glycan array binding signal (z-score),[4],0.135
same,glycan array binding signal (z-score),Kdn(a2-3)Gal(b1-3)GalNAc,-0.192
same,glycan array binding signal (z-score),Kdn(a2-3)Gal(b1-3)GlcNAc,-0.881
same,glycan array binding signal (z-score),Kdn(a2-3)Gal(b1-4)Glc,0.223
same,glycan array binding signal (z-score),Kdn(a2-3)Gal(b1-4)GlcNAc,-0.262
same,glycan array binding signal (z-score),[5],0.026
same,glycan array binding signal (z-score),Kdn(a2-6)Gal(b1-4)GlcNAc,-0.099
same,glycan array binding signal (z-score),[6],-0.433
same,glycan array binding signal (z-score),[7],-0.007
same,glycan array binding signal (z-score),Man(a1-2)Man(a1-3)Man,-0.482
same,glycan array binding signal (z-score),[8],-0.986
same,glycan array binding signal (z-score),[9],-0.57
same,glycan array binding signal (z-score),[10],0.843
same,glycan array binding signal (z-score),[11],-0.651
same,glycan array binding signal (z-score),[12],-0.958
same,glycan array binding signal (z-score),[13],0.134
same,glycan array binding signal (z-score),Man(a1-3)[Man(a1-6)]Man,-0.023
same,glycan array binding signal (z-score),[14],1.72
same,glycan array binding signal (z-score),[15],-0.086
same,glycan array binding signal (z-score),[16],0.14
same,glycan array binding signal (z-score),[17],-0.212
same,glycan array binding signal (z-score),[18],-0.498
same,glycan array binding signal (z-score),Man(a1-6)Man,-0.764
same,glycan array binding signal (z-score),Man(b1-4)GlcNAc,-0.161
same,glycan array binding signal (z-score),MurNAc(b1-4)GlcNAc,-0.247
same,glycan array binding signal (z-score),Neu5Ac(a2-3)Gal,-0.334
same,glycan array binding signal (z-score),[19],-0.476
same,glycan array binding signal (z-score),[20],-0.224
same,glycan array binding signal (z-score),[21],-0.333
same,glycan array binding signal (z-score),[22],0.303
same,glycan array binding signal (z-score),[23],-0.283
same,glycan array binding signal (z-score),[24],-0.334
same,glycan array binding signal (z-score),[25],-0.095
same,glycan array binding signal (z-score),[26],-0.468
same,glycan array binding signal (z-score),[27],5.37
same,glycan array binding signal (z-score),[28],0.156
same,glycan array binding signal (z-score),[29],0.093
same,glycan array binding signal (z-score),[30],-0.252
same,glycan array binding signal (z-score),[31],-0.122
same,glycan array binding signal (z-score),[32],0.012
same,glycan array binding signal (z-score),[33],0.201
